{
  "source": "PubChem BioAssay AID1508642",
  "about": "(National Center for Advancing Translational Sciences (NCATS), 2021)",
  "note": "The campaign covered roughly 43,000 compounds. About 200 (0.47%) were called active. Not shown: some 12% with an inconclusive outcome. Calls come from the whole dose curve; as a rule, active = well fitted cell-killing curve with a large enough effect; inconclusive = small, poorly fitted or top-dose-only effect, or effect the other way; inactive = flat fitted curve, though single readings scatter. This is one part of the list. % is set by controls: 0 for no effect and ±100 for the full control effect.",
  "data": [
    {"experiment": "Cell viability qHTS assay in S16 Pmp22-F2sN cells; note: nearly all actives have a fitted effect of over 65% in size", "conditions": "S16 Pmp22-F2sN Schwann cells (luciferase reporters placed in the Pmp22 gene) viability, CellTiter-Glo, 24 h; series mostly up to 57.5 µM; activity change, negative = cytotoxicity: at the top concentration", "how_it_was_run": "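Rat S16 Schwann reporter line, 24 h treatment with library compounds delivered at 23 nL per well. Cell viability by CellTiter-Glo luminescence.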", "values": [
      {"smiles": "COc1ccc(-n2ncc3c2ncn2nc(-c4ccc(Cl)cc4Cl)nc32)cc1", "activity change, negative = cytotoxicity": "inactive: 1.2%"},
      {"smiles": "COc1ccc(NC(=O)C(CC(C)C)NS(=O)(=O)c2ccc3c(c2)oc(=O)n3C)cc1Cl", "note": "(stereo unspecified)", "activity change, negative = cytotoxicity": "inactive: -2.76%"},
      {"smiles": "COc1cccc(C2Nc3ccccc3-c3nnc(SCc4ccccc4)nc3O2)c1OC", "note": "(stereo unspecified)", "activity change, negative = cytotoxicity": "inactive: 5.1%"},
      {"smiles": "Cc1ccc(S(=O)(=O)c2nc(-c3ccccc3)oc2SCC(=O)NC2CCCCC2)cc1", "activity change, negative = cytotoxicity": "inactive: -20.4%"},
      {"smiles": "COc1ccc(N(CC(=O)N2CCN(c3cccc(OC)c3)CC2)S(=O)(=O)c2c(C)noc2C)cc1", "activity change, negative = cytotoxicity": "inactive: -24.3%"},
      {"smiles": "O=C(Cn1c(=O)ccc2cc(S(=O)(=O)N3CCCC3)ccc21)NCc1ccc(F)cc1", "activity change, negative = cytotoxicity": "inactive: 2.16%"},
      {"smiles": "CCOc1ccc(NC(=O)Cn2c(=O)n(Cc3nc(-c4ccccc4)no3)c(=O)c3ccccc32)cc1", "activity change, negative = cytotoxicity": "inactive: -1.64%"},
      {"smiles": "CCOC(=O)C1=C(CS(=O)(=O)c2ccc(C)c(C)c2)NC(=O)NC1c1ccccc1OCC", "note": "(stereo unspecified)", "activity change, negative = cytotoxicity": "inactive: -12.5%"},
      {"smiles": "CCc1cccc(NC(=O)c2coc(=O)c3ccccc23)c1", "activity change, negative = cytotoxicity": "inactive: -4.94%"},
      {"smiles": "COC(=O)c1ccc(Cl)cc1NC(=O)N1CCC(CN2CCC(C)CC2)CC1", "activity change, negative = cytotoxicity": "inactive: 1.34%"},
      {"smiles": "COc1cccc(NC(=O)c2oc3ccccc3c2NC(=O)Cc2cccc(C)c2)c1", "activity change, negative = cytotoxicity": "inactive: 8.25%"},
      {"smiles": "Cc1cn2c(=O)cc(COC(=O)C(C)Oc3ccccc3)nc2s1", "note": "(stereo unspecified)", "activity change, negative = cytotoxicity": "inactive: 0.87%"},
      {"smiles": "O=C(COc1ccc(Br)cc1)Nc1cccc2cccnc12", "activity change, negative = cytotoxicity": "inactive: 3.12%"},
      {"smiles": "COC(=O)CN1C(=O)C(C)(C)c2cc(S(=O)(=O)Nc3ccc(C(C)C)cc3)ccc21", "activity change, negative = cytotoxicity": "inactive: -0.0744%"},
      {"smiles": "Cc1ccccc1OCC(=O)N(Cc1ccc(C(C)C)cc1)C1CCS(=O)(=O)C1", "note": "(stereo unspecified)", "activity change, negative = cytotoxicity": "inactive: 0.817%"},
      {"smiles": "CCc1ccc(-n2nc(CO)c(C(=O)NCCCCc3ccccc3)n2)cc1", "activity change, negative = cytotoxicity": "inactive: -1.46%"},
      {"smiles": "O=C(NCc1ccc(Cl)cc1)c1cc(-c2ccc(F)cc2)on1", "activity change, negative = cytotoxicity": "inactive: 18.2%"},
      {"smiles": "COc1ccc(N2CC(NC(=O)c3ccc(S(=O)(=O)N4CCOCC4)cc3)CC2=O)cc1", "note": "(stereo unspecified)", "activity change, negative = cytotoxicity": "inactive: 12.4%"},
      {"smiles": "COc1ccccc1NC(=O)C1CCN(c2ncnc3c2nc2n3CCCCC2)CC1", "activity change, negative = cytotoxicity": "inactive: -11.8%"},
      {"smiles": "COc1cc2c(cc1OC)C(COc1ccc(C(C)C)cc1)N(C(=O)COc1ccccc1)CC2", "note": "(stereo unspecified)", "activity change, negative = cytotoxicity": "inactive: -25.5%"},
      {"smiles": "CCS(=O)(=O)c1nc(S(=O)(=O)c2ccc(C)cc2)c(NCc2ccccc2Cl)s1", "activity change, negative = cytotoxicity": "inactive: -4.86%"},
      {"smiles": "CCOc1ccc(C(=O)c2cn(CC(=O)Nc3ccc(C)c(C)c3)c3ccc(OCC)cc3c2=O)cc1", "activity change, negative = cytotoxicity": "inactive: 1.9%"},
      {"smiles": "CCOc1ccc(Nc2nc(Nc3ccc(OCC)cc3)nc(N3CCOCC3)n2)cc1", "activity change, negative = cytotoxicity": "inactive: 4.4%"},
      {"smiles": "COc1ccc(OCC(=O)N2CCN(C(=O)c3ccc(OC)cc3)CC2)cc1", "activity change, negative = cytotoxicity": "inactive: 1.95%"},
      {"smiles": "O=C(O)Cn1nc(N2CCN(c3ccccc3)CC2)ccc1=O", "activity change, negative = cytotoxicity": "inactive: 5.34%"},
      {"smiles": "CCOc1ccc(CCNC(=O)c2sc3nc4n(c(=O)c3c2C)CCCC4)cc1", "activity change, negative = cytotoxicity": "inactive: -3.29%"}
    ]}
  ]
}
